{"source": "PubChem BioAssay AID686970", "about": "(National Center for Advancing Translational Sciences (NCATS), 2013)", "note": "About 6,000 (1.7%) of roughly 360,000 compounds were called active. The inconclusive results got no clear call from the source; some entries with a clear call stand among them for comparison. The call rests on the fitted dose curve; in most records, active means well fitted cell-killing curve with a large enough effect; inconclusive means small, poorly fitted or top-dose-only effect, or effect the other way; inactive means flat fitted curve, though single readings scatter. No potency is given beside an inconclusive call; the fits are too rough. Potency means the concentration at half of the fitted maximal effect; tags describe the fitted curve by direction and shape.", "data": [{"test": "qHTS for induction of synthetic lethality in tumor cells producing 2HG: qHTS for the HT-1080-NT fibrosarcoma cell line;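 further: NT is the 2HG producing partner of a matched IDH1 knockdown line; nearly all actives have a fitted effect of over 55% in size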;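 on activity, negative = less viability: 0% = DMSO-treated cells and -100% = media-only wells without cells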", "details": "HT-1080-NT fibrosarcoma viability, CellTiter-Glo ATP luminescence, 48 h; activity, negative = less viability: at 46.1 µM (top of the series)", "in_short": "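A 48-hour cytotoxicity screen used HT-1080-NT cells plated 2 hours before compound delivery. ATP-based CellTiter-Glo luminescence measured viability, normalized to DMSO and no-cell controls.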", "values": [{"smiles": "C[C@H]1[C@H](OC(=O)CCC(=O)NCc2ccc(C(=O)O)cc2)O[C@@H]2O[C@@]3(C)CC[C@H]4[C@H](C)CC[C@@H]1C24OO3", "Potency": "inconclusive [cytotoxic, partial curve, poor fit]"}, {"smiles": "NS(=O)(=O)c1ccc(N=Cc2c(O)n(-c3ccccc3)c(=O)[nH]c2=O)cc1", "Potency": "inactive"}, {"smiles": "CC(C)OCCCNC(=O)c1c(N)n(CC2CCCO2)c2nc3ccccc3nc12", "note": "(stereo not drawn)", "Potency": "inconclusive [cytotoxic, single point]"}, {"smiles": "COc1ccc(-[n+]2c(-c3ccccc3)cc(-c3ccc(C)cc3)cc2-c2ccccc2)cc1", "Potency": "active: 4.61 µM"}, {"smiles": "CCC(C)NC(=O)c1c(N)n(Cc2ccc3c(c2)OCO3)c2nc3ccccc3nc12", "note": "(stereo not drawn)", "Potency": "inconclusive [cytotoxic, single point]"}, {"smiles": "CC1Oc2cc3c(-c4c(O)cc(O)c5c(O)c6c(cc45)OC(C)C(C)C6=O)c(O)cc(O)c3c(O)c2C(=O)C1C", "note": "(stereo not drawn)", "Potency": "active: 4.61 µM"}, {"smiles": "COC(=O)C1=C(c2ccc(F)cc2OCc2ccccc2)C[C@@H]2CC[C@H]1N2C(=O)NCCOc1ccc(OC)cc1", "Potency": "inactive"}, {"smiles": "Cc1ccc(Cn2c(C)c3cnn(CC(=O)N4CCC5(CC4)OCCO5)c(=O)c3c2C)cc1", "Potency": "inconclusive [cytotoxic, partial curve]"}, {"smiles": "Cc1cccc(-c2nc3ccc(C(=O)N4CCC5(CC4)OCCO5)cc3nc2-c2cccc(C)c2)c1", "Potency": "inconclusive [cytotoxic, single point]"}, {"smiles": "COC(=O)C1=C(c2cc3ccccc3s2)C[C@@H]2CC[C@H]1N2C(=O)N1CCOCC1", "Potency": "active: 9.2 µM"}, {"smiles": "O=C(c1ccc2c(c1)ncn2C1CCCCC1)N1CCC2(CC1)OCCO2", "Potency": "inconclusive [cytotoxic, partial curve]"}, {"smiles": "CCOc1cccc(=NC2CCCCC2)c2c(C)n(C)c(C)c12", "Potency": "active: 20.6 µM"}, {"smiles": "N/C(=N\\[N+](=O)[O-])N1CCN(C(=O)c2ccccn2)CC1", "Potency": "inactive"}, {"smiles": "CCCCn1c(NC(=O)c2ccco2)c(C(=O)OCC)c2nc3ccccc3nc21", "Potency": "inconclusive [cytotoxic, single point]"}, {"smiles": "CCn1cc(C(=O)N2CCC3(CC2)OCCO3)c(=O)c2cc(S(=O)(=O)N3CCCC3)ccc21", "Potency": "inactive"}, {"smiles": "NC(=O)c1ccc(N)nc1", "Potency": "active: 2.59 µM"}, {"smiles": "CC(C)n1c(/C=C/[C@H](O)C[C@H](O)CC(=O)O)c(-c2ccc(F)cc2)c2ccccc21", "Potency": "active: 8.2 µM"}, {"smiles": "Cn1c(=O)oc2cc(S(=O)(=O)N3CCC(C(=O)Nc4ccc(OC(F)(F)F)cc4)CC3)ccc21", "Potency": "inconclusive [cytotoxic, single point]"}, {"smiles": "COC(=O)C1=C(c2ccc(OC(F)(F)F)cc2)C[C@@H]2CC[C@H]1N2C(=O)NCc1ccc(F)cc1", "Potency": "inactive"}, {"smiles": "CSc1nnc([C@@H](N)Cc2c[nH]c3ccccc23)o1", "Potency": "inconclusive [rising, single point]"}, {"smiles": "O=[N+]([O-])c1ccc(-[n+]2c(-c3ccccc3)cc(-c3ccccc3)cc2-c2ccccc2)cc1", "Potency": "inconclusive [cytotoxic, single point]"}, {"smiles": "COc1ccc(CN2C(=O)CC(=O)NC2=S)cc1", "Potency": "inactive"}, {"smiles": "COc1ccc(-n2c(O)c(/C(C)=N/Nc3ccccc3)c(=O)[nH]c2=O)cc1", "Potency": "active: 1.64 µM"}, {"smiles": "COC(=O)C1=C(c2cccc(C#N)c2)C[C@@H]2CC[C@H]1N2C(=O)NC1CC1", "Potency": "inconclusive [rising, single point]"}, {"smiles": "COc1cc(/C=C/[N+](=O)[O-])ccc1O", "Potency": "inconclusive [cytotoxic, single point]"}, {"smiles": "COc1ccc(OC)c2c1CCC1NCCOC21", "note": "(stereo not drawn)", "Potency": "inactive"}, {"smiles": "COc1ccc(-c2coc3c(C(=O)Nc4cc(OC)c(OC)c(OC)c4)cccc23)c(C)c1", "Potency": "inconclusive [cytotoxic, partial curve]"}, {"smiles": "COC(=O)C1=C(c2ccc(OC(F)(F)F)cc2)C[C@@H]2CC[C@H]1N2C(=O)N1CCCCC1", "Potency": "inconclusive [cytotoxic, single point]"}, {"smiles": "CN1C(=O)NC(=O)/C(=C\\C=C\\c2ccccc2[N+](=O)[O-])C1=O", "Potency": "inconclusive [cytotoxic, partial curve]"}, {"smiles": "CCCCCCC[n+]1ccc(-c2cc[n+](CCCCCCC)cc2)cc1", "Potency": "inconclusive [cytotoxic, single point]"}, {"smiles": "O=c1[nH]c2ccccc2n1C1CCN(C(c2cccs2)c2nnnn2Cc2ccccc2)CC1", "note": "(stereo not drawn)", "Potency": "active: 18.4 µM"}, {"smiles": "COc1cc(C(c2c(O)c3ccccc3oc2=O)c2c(C)n(C)n(-c3ccccc3)c2=O)ccc1O", "note": "(stereo not drawn)", "activity, negative = less viability": "inconclusive: -3.26%"}, {"smiles": "Cc1cccc(C(=O)Nc2ccc3c(c2)CC2(C(=O)N(C)C(=O)N(C)C2=O)C2CCCN32)c1", "note": "(stereo not drawn)", "Potency": "inactive"}, {"smiles": "COc1ccc(-n2nnnc2C(CCSC)N2CCC(n3c(=O)[nH]c4ccccc43)CC2)cc1", "note": "(stereo not drawn)", "Potency": "inconclusive [cytotoxic, single point]"}, {"smiles": "CC(=O)O[C@H]1C(=O)[C@@]2(C)C([C@H](OC(=O)c3ccccc3)[C@]3(O)C[C@H](OC(=O)[C@H](O)[C@@H](NC(=O)Cc4ccccc4)c4ccccc4)C(C)=C1C3(C)C)[C@]1(OC(C)=O)CO[C@@H]1C[C@@H]2O", "note": "(stereo partly drawn)", "Potency": "active: 0.517 µM"}, {"smiles": "Nc1ccc(Cl)cc1C(=O)c1ccccc1Cl", "Potency": "inconclusive [cytotoxic, single point]"}, {"smiles": "CN(C)CC1Oc2ccccc2OC1(O)c1ccccc1", "note": "(stereo not drawn)", "Potency": "active: 8.2 µM"}, {"smiles": "CN1CCC(n2nccc2N)CC1", "Potency": "inactive"}, {"smiles": "COc1ccc(CN2C(=O)NC(=O)/C(=C\\c3ccco3)C2=O)cc1", "Potency": "inactive"}, {"smiles": "CC(C)N(CCC(C(N)=O)(c1ccccc1)c1ccccn1)C(C)C", "note": "(stereo not drawn)", "Potency": "inconclusive [rising, full curve]"}, {"smiles": "O=C1NC(=O)C(CCc2ccncc2)(Cc2cccc(Cl)c2Cl)C(=O)N1c1ccc(Br)cc1", "note": "(stereo not drawn)", "Potency": "active: 16.4 µM"}, {"smiles": "CN1C(=O)C(=Cc2sc(=O)n(-c3ccccc3)c2N(C)C)C(=O)N(C)C1=O", "Potency": "inconclusive [cytotoxic, single point]"}, {"smiles": "COc1ccc(-n2nnnc2C(c2cc3ccccc3o2)N2CCC(n3c(=O)[nH]c4ccccc43)CC2)cc1", "note": "(stereo not drawn)", "Potency": "inconclusive [cytotoxic, full curve]"}]}]}
